Here are results for 4 substances from article PMC12501022.

Protein sequences, listed by entry. Tags and fused reporters are not part of them.
UniProt P08670: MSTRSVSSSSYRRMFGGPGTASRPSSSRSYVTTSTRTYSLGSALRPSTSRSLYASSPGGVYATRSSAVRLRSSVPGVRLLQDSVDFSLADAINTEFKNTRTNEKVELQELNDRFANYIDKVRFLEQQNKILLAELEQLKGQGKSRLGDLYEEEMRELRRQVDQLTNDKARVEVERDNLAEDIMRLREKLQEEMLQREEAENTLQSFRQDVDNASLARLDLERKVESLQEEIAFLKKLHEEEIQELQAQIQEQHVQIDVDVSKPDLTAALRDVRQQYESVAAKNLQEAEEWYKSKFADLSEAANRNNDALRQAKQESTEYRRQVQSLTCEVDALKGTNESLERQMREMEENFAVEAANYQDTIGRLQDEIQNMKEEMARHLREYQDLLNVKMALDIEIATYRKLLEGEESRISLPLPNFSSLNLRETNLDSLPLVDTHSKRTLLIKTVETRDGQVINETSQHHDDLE
UniProt O60238: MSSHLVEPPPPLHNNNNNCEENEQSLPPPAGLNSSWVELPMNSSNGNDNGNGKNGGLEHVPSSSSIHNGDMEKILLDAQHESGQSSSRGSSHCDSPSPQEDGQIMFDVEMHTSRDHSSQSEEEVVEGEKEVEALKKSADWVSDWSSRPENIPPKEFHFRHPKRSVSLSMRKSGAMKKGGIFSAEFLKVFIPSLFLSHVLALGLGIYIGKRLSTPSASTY
UniProt Q96CV9: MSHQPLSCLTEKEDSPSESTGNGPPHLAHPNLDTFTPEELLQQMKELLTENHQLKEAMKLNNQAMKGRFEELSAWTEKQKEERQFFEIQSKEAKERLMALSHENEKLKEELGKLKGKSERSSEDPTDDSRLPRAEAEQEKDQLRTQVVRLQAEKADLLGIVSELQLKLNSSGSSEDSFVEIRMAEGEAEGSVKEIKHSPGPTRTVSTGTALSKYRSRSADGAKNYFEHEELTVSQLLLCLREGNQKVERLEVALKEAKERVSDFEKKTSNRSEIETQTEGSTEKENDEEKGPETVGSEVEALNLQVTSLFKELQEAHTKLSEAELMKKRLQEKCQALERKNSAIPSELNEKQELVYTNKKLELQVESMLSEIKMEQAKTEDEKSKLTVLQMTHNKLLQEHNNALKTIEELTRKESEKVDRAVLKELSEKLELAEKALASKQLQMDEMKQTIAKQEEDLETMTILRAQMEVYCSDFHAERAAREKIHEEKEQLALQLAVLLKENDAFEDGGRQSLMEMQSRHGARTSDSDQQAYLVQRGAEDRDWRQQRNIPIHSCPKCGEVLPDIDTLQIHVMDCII
UniProt P19474: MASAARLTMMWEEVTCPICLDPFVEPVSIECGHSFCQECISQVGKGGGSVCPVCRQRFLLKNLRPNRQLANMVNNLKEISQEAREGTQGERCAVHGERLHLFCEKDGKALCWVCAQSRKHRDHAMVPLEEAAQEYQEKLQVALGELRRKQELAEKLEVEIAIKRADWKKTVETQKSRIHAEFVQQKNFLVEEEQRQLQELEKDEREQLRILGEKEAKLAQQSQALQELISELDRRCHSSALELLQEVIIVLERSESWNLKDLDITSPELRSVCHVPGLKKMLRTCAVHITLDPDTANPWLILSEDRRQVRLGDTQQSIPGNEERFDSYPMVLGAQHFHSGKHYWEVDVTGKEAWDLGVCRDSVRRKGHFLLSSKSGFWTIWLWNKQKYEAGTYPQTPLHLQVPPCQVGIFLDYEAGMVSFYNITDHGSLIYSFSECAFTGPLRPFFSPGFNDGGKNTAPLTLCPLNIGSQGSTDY

These are yes or no findings as the source states them, for the method shown. In cells and extracts the contact can be indirect. Some entries that bind do so weakly or less than the wild type. For some of these results: Sequences can lack the tags named with a protein.

For one test, the target named is Flag-TM9SF1 (human) (UniProt O15321). As to the kind of experiment: co-IP; HCT116 or LoVo transfected with Flag-TM9SF1 for 48 h; IP with anti-Flag, blot with anti-TRIM21, anti-Vimentin, anti-Tollip and anti-Flag.
For test [1], the target named is Vimentin, endogenous (human (endogenous in SW48, DLD1, HCT116, LoVo)) (UniProt P08670). As to the kind of experiment: co-IP; Fig. S6B-D, legend not shown; method taken from the paper's methods (co-IP is the only blot-based binding assay described); constructs and cells not told.
Another test deals with Myc-Vimentin (human) (UniProt P08670). As to the kind of experiment: co-IP; Myc-Vimentin transfected in HCT116, LoVo, SW48 or DLD1; IP with anti-Myc, blot for endogenous Tollip and TRIM21; cells with Flag-TM9SF1 overexpression or vector, TM9SF1 knockdown, TRIM21 knockdown, CQ (50 μM) for 4 h.
Another test has as its target T1, Flag-NBR1 (UniProt Q14596).
T1 sequence: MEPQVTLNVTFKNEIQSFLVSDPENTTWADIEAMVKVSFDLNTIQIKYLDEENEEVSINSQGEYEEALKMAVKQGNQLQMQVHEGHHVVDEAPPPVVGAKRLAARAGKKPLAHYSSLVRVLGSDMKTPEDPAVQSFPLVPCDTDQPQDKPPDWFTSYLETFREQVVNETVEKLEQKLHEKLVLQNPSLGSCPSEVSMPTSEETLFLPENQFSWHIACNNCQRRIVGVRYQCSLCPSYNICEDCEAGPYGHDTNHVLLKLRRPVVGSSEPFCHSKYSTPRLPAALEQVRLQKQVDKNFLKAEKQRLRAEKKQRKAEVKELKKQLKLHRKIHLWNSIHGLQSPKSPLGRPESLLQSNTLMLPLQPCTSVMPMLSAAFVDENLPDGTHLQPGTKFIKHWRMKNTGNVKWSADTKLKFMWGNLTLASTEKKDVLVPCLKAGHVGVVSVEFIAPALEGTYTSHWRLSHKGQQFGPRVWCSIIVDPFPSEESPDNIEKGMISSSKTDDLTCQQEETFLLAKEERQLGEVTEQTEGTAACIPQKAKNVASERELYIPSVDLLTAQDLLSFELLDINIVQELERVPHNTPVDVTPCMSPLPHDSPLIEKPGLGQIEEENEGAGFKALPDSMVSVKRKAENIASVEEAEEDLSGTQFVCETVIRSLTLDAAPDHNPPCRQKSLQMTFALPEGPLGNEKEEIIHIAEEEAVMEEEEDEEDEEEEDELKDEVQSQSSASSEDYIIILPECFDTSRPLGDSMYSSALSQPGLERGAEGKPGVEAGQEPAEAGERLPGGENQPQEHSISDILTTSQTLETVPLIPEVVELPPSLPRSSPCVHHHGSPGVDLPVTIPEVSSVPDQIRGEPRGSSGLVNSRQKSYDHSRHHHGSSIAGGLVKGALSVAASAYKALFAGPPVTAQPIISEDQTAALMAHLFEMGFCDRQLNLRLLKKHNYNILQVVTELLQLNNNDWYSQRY
As to the kind of experiment: co-IP; 293T co-transfected with Myc-Vimentin and a Flag-tagged cargo receptor for 48 h; IP with anti-Flag, blot with anti-Flag and anti-Myc.

The next test concerns the target T2, Flag-NDP52 (UniProt Q13137).
T2 sequence: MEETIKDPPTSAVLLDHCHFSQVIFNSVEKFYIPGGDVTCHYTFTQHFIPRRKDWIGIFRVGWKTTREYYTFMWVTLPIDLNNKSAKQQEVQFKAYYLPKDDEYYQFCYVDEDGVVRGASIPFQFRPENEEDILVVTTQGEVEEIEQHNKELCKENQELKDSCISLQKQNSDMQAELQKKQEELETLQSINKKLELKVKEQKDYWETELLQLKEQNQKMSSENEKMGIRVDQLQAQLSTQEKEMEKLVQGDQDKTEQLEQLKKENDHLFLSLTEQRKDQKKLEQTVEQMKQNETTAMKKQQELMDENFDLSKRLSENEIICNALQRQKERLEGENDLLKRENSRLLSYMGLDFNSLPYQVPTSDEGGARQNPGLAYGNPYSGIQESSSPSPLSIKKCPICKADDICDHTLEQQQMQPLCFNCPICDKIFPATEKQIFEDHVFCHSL
The description is as above.

Another test has as its target Flag-NIX (UniProt O60238). Described as above.
For the next test, the target named is Flag-OPTN (UniProt Q96CV9). The description is as above.
For test [2], the target named is Vimentin, endogenous (human (endogenous in SW48, DLD1, HCT116, LoVo)) (UniProt P08670). As to the kind of experiment: co-IP; endogenous proteins in lysates (RIPA) of colorectal cancer cells (SW48, DLD1, HCT116, LoVo); IP with anti-TM9SF1, anti-Vimentin or anti-Tollip antibody, protein A/G agarose, western blot.
Test [3] concerns the target transmembrane 9 superfamily member 1 (TM9SF1), endogenous (human (endogenous in SW48, DLD1, HCT116, LoVo)) (UniProt O15321). The test is described as above.

Consider “tripartite motif containing 21 (TRIM21), endogenous (from UniProt P19474 1-475)”, for which the binding result (with Flag-TM9SF1 (human); in test [1]; in the test with Myc-Vimentin (human)) was “binds” in each case.
As for “Myc-Vimentin (from UniProt P08670 1-466)”, the binding entry with Flag-NBR1, with Flag-NDP52, with Flag-NIX and with Flag-OPTN was “no binding” each time.
With “transmembrane 9 superfamily member 1 (TM9SF1), endogenous (from UniProt O15321 28-606)”, in test [2], the binding entry is “binds”.
“Vimentin, endogenous (from UniProt P08670 1-466)”: the binding result (with Flag-TM9SF1 (human); in test [3]) was “binds” throughout.
